The source of these data is ChEMBL document CHEMBL4888484, “Replenishing the malaria drug discovery pipeline: Screening and hit evaluation of the MMV Hit Generation Library 1 (HGL1) against asexual blood stage Plasmodium falciparum ,using a nano luciferase reporter read-out” (2022).

The campaign covered roughly 150,000 compounds. About 540 (0.36%) showed an effect of 50% or more. Some of the results follow.

The test has as its system Plasmodium falciparum. Nature of the test: Primary screen in NF54 nanoGlo assay, in single point, at 2uM, 72h; a lower Z score goes with more inhibition. Type of test: functional, Erythrocyte. The following applies: timepoint 72 hour.
As to `COc1ccc(NC(=O)Cn2cnc3c(nnn3C)c2=O)cc1OC`, the % Inhibition (commonly the change of the read-out against control, counted positive when it falls) is recorded as -9% and the Z score is reported as 1.47.

Consider `Cc1n[nH]cc1CNCc1ccccc1CN1CCOCC1`, for which the “% Inhibition” value is -6% and the Z score stood at 0.86.

On to `Cc1ccc(C2(c3noc(CN4CCC(OCc5cccnc5)CC4)n3)CCCC2)cc1`, for which the “% Inhibition” value was -3% and the Z score was 0.4.

For the molecule `COc1ccc(OCC(=O)N(Cc2cccc(Br)c2)[C@H]2CCS(=O)(=O)C2)cc1`, the “% Inhibition” value is recorded as -9% and the Z score stood at 0.82.

As to `CCCN1CCCN(c2nc(OC)nc(N3CCCCCC3)n2)CC1`, the “% Inhibition” value is listed as -1% and the Z score is given as 0.07.

In the case of `CCc1nnc(CNC(=O)c2cnc(-c3cccnc3)nc2)s1`, the “% Inhibition” value was -12% and the Z score was 1.6.

With `Cc1nc(-c2cnc(C3CC3)nc2C)n(C2CCN(C)CC2)n1`, the “% Inhibition” value was -9% and the Z score is on record as 1.75.

Consider `CC1(C)CC(NC(=O)COc2ccccc2)CC(C)(CNC(=O)COc2ccccc2)C1` (stereo not given), for which the “% Inhibition” value is reported as -2% and the Z score is 0.22.

As for `CC1(C)C[C@]1(C(=O)NCc1nc(-c2cnccn2)n[nH]1)c1ccccc1F`, the “% Inhibition” value is reported as -3% and the Z score is given as 0.31.

For `COc1ccc2c(c1)OC[C@]1(CO)CN(CC(=O)N3CCOCC3)C[C@H]21`, the “% Inhibition” value is recorded as -2% and the Z score is on record as 0.27.

In the case of `CC1(C)C(CNC(=O)COc2ccccc2O)C1(C)C`, the “% Inhibition” value is listed as -12% and the Z score was determined as 1.66.

In the case of `CC(C)Oc1cc(N2CCCNC(=O)C2)nc(N)n1`, the “% Inhibition” value is on record as -8% and the Z score came to 1.51.

With `O=C(Cc1cccc(Cl)c1)NC[C@H]1CCN(C2CCCC2)C1`, the “% Inhibition” value came to 0% and the Z score is on record as -0.04.

In the case of `c1ccc(-c2noc(Cc3cc(C4CC4)no3)n2)c(Cn2cccn2)c1`, the “% Inhibition” value is listed as -5% and the Z score is listed as 1.04.

For the molecule `Cc1cccc2c1CCN2Cc1cnn([C@@]2(C)CCS(=O)(=O)C2)c1`, the “% Inhibition” value is recorded as 1% and the Z score is recorded as -0.17.

Take `Fc1cc(-c2cnc3ccc(F)cn23)c2ncccc2c1`: the “% Inhibition” value amounted to 0% and the Z score is reported as -0.08.

On to `Nc1ccc2ncn(C3CC3)c(=O)c2c1`, for which the “% Inhibition” value was -3% and the Z score stood at 0.32.

Regarding `CCc1ccc(-c2c(C)sc(NC(=O)C3CCN(C(C)=O)CC3)c2C(N)=O)cc1`, the “% Inhibition” value is -2% and the Z score stood at 0.31.

Regarding `COc1ccc(C(NS(=O)(=O)C(C)C)[C@H]2C[C@@H](O)C2)cn1` (stereo not given in full), the “% Inhibition” value is listed as -9% and the Z score is on record as 1.2.

On to `CC1(CCc2nc([C@H]3CCOC3)n[nH]2)CC1`, for which the “% Inhibition” value is given as 1% and the Z score is -0.14.

`O=C(CNc1ncc(Cl)cn1)NC1CCCCC1`: the “% Inhibition” value amounted to 29% and the Z score was -3.96.

For `CN(C)S(=O)(=O)Oc1ccc2c(c1)OCO2`, the “% Inhibition” value is reported as -3% and the Z score came to 0.44.

`Cc1nnc([C@H](C)Nc2ccc(-c3cccc(F)c3)c(F)c2)o1`: the “% Inhibition” value is on record as -17% and the Z score was 1.94.

Consider `COc1ccc(CCC(=O)N2CC(N3CCC(C(N)=O)CC3)C2)cc1`, for which the “% Inhibition” value is given as -10% and the Z score was 1.9.

As to `Cc1cccc2oc(CCNC(=O)C3CC3c3c(F)cccc3Cl)nc12` (stereo not given), the “% Inhibition” value came to 30% and the Z score is reported as -3.4.

For the molecule `Cc1nc(CNc2ccn(C)n2)cs1`, the “% Inhibition” value is listed as -11% and the Z score is 1.62.

In the case of `COCc1nc(CC(C)C)nc(N2CCN(C(=O)c3cccs3)CC2)c1Cc1cc(C)ccc1C`, the “% Inhibition” value amounted to 10% and the Z score is on record as -1.46.

`Cc1cccc(C2(c3noc(C(C)(C)C(N)=O)n3)CC2)c1`: the “% Inhibition” value is recorded as -4% and the Z score is listed as 0.64.

Regarding `O=C(NCCC1=CCCCC1)c1cc(N2CCc3ccccc3C2)nc2ccccc12`, the “% Inhibition” value was -16% and the Z score turned out to be 1.51.

Consider `CCC[N+](C)(CCC)Cc1cc2ccccc2c2c1COC2`, for which the “% Inhibition” value was -4% and the Z score was determined as 0.71.

For the molecule `COc1ccc(Cl)cc1C(=O)N1CCOc2ccc(CO)cc2C1`, the “% Inhibition” value is reported as -15% and the Z score came to 1.88.

Take `O=C1CCCC(=O)N1CCS(=O)(=O)Nc1ccc(Cl)c(N2CCCS2(=O)=O)c1`: the “% Inhibition” value is reported as -15% and the Z score is 2.19.

On to `Cc1nn(Cc2nnc(-c3ccccc3)o2)c(=O)c(C#N)c1C`, for which the “% Inhibition” value was -10% and the Z score is 1.35.

As to `CCOC(CS(=O)(=O)N1CCC2C(CCC(=O)N2C2CC2)C1)C1CC1` (stereo not given), the “% Inhibition” value is given as 9% and the Z score is on record as -1.17.

As to `Cc1cc(-n2nc(-c3ccccc3)nc2CC[C@@H]2NC(=O)NC2=O)ccn1`, the “% Inhibition” value is -6% and the Z score is 0.84.

In the case of `CCCC(=O)[C@H](C#N)c1nc2cc(Cl)ccc2c(=O)[nH]1`, the “% Inhibition” value is listed as -10% and the Z score turned out to be 1.81.

Take `Cc1noc2nc(-c3cnn(C)c3)cc(C(=O)N3CCCC[C@H]3c3ccccc3)c12`: the “% Inhibition” value is -23% and the Z score is recorded as 4.56.

As for `O=C(Cc1ccc(NC(=O)c2ccc(Br)cc2)cc1)Nc1nncs1`, the “% Inhibition” value was -4% and the Z score stood at 0.57.

For the molecule `Cc1cc(C)c2cc(CN3CCCN(CC(F)F)CC3)[nH]c2c1`, the “% Inhibition” value is recorded as -27% and the Z score is listed as 3.21.

For the molecule `O=C(Nc1ccc2c(c1)OCO2)C1CC2CCC1C2` (stereo not given), the “% Inhibition” value is -12% and the Z score stood at 2.22.

In the case of `COc1ccc(Cl)cc1NC(=O)N1CCC[C@H](Oc2nc(C)cc(C)n2)C1`, the “% Inhibition” value stood at 5% and the Z score is -0.71.

For `CCCCN[C@H]1CS(=O)(=O)C[C@@H]1S(=O)(=O)c1ccccc1`, the “% Inhibition” value came out at 2% and the Z score is -0.2.

Turning to `N#Cc1ccc(N2C[C@@H]3OCC(=O)N(Cc4ccccc4)[C@@H]3C2)nc1`, the “% Inhibition” value came to 15% and the Z score was -1.74.

Take `CN1CCOC(C(NCc2cscn2)c2ccc(Cl)cc2)C1` (stereo not given): the “% Inhibition” value is -4% and the Z score is 0.66.

Consider `O=C1C[C@H](c2ccc3c(c2)OCO3)c2c(-c3ccccc3)n[nH]c2O1`, for which the “% Inhibition” value is listed as -4% and the Z score stood at 0.53.
